# From a collection of fitness landscapes (doi:10.1126/science.1257360)
# This is one part of the list.
# B1: PhoQ; a variant is named by its letters at X, in order, P23837 (parent)
# chain: MKKLLRLFFPLSLRVRFLLATAAVVLVLSLAYGMVALIGYSVSFDKTTFRLLRGESNLFYTLAKWENNKLHVELPENIDKQSPTMTLIYDENGQLLWAQRDVPWLMKMIQPDWLKSNGFHEIEADVNDTSLLLSGDHSIQQQLQEVREDDDDAEMTHSVAVNVYPATSRMPKLTIVVVDTIPVELKSSYMVWSWFIYVLSANLLLVIPLLWVAAWWSLRPIEALAKEVRELEEHNRELLNPATTRELTSLVRNLNRLLKSERERYDKYRTTLTDLTHSLKTPLXXLQXXLRSLRSEKMSVSDAEPVMLEQISRISQQIGYYLHRASMRGGTLLSRELHPVAPLLDNLTSALNKVYQRKGVNISLDISPEISFVGEQNDFVEVMGNVLDNACKYCLEFVEISARQTDEHLYIVVEDDGPGIPLSKREVIFDRGQRVDTLRPGQGVGLAVAREITEQYEGKIVAGESMLGGARMEVIFGRQHSAPKDE
# Variants of: B1
# Experiment: enrichment ratio after two sorts for PhoP signalling (ratio (wild type AVST 3.29)); higher = more functional
# Details: with PhoP (E. coli)
row,Variant,enrichment ratio
1,VNQW,≤ 0.25
2,HSKH,≤ 0.25
3,FQYW,≤ 0.25
4,DKAF,≤ 0.25
5,YLFH,≤ 0.25
6,ASEA,≤ 0.25
7,IRRR,≤ 0.25
8,NRQP,≤ 0.25
9,LPWT,≤ 0.25
10,GEDC,≤ 0.25
11,DCAN,≤ 0.25
12,STSK,0.472
13,ICAG,≤ 0.25
14,SQII,7.34
15,RNVF,≤ 0.25
16,FYKT,≤ 0.25
17,KEVC,≤ 0.25
18,MRVR,≤ 0.25
19,GMSS,1.08
20,PNKP,≤ 0.25
21,PCKL,≤ 0.25
22,GCCD,≤ 0.25
23,VTKR,≤ 0.25
24,QITH,≤ 0.25

row,Variant,enrichment ratio
1,KVPT,≤ 0.25
2,EKPF,≤ 0.25
3,LQCW,≤ 0.25
4,HVHR,≤ 0.25
5,IWPQ,≤ 0.25
6,LRHM,≤ 0.25
7,HPTR,≤ 0.25
8,VSHA,≤ 0.25
9,QARF,≤ 0.25
10,TIRQ,≤ 0.25
11,EPDK,≤ 0.25
12,PLVI,≤ 0.25
13,GFSI,≤ 0.25
14,QMEP,≤ 0.25
15,RNTS,≤ 0.25
16,YLRL,≤ 0.25
17,TWYN,≤ 0.25
18,HHNE,≤ 0.25
19,SIEL,≤ 0.25
20,DFND,≤ 0.25
21,AGQG,≤ 0.25
22,ILGL,≤ 0.25
23,RMHD,≤ 0.25
24,REYV,≤ 0.25

row,Variant,enrichment ratio
1,PECR,≤ 0.25
2,GQYF,≤ 0.25
3,HEFA,≤ 0.25
4,EEVP,≤ 0.25
5,DGCG,≤ 0.25
6,LCNN,≤ 0.25
7,FLTG,≤ 0.25
8,LKYT,0.284
9,ILAL,≤ 0.25
10,DDEN,≤ 0.25
11,SMWH,≤ 0.25
12,DPFS,≤ 0.25
13,TLCM,1.06
14,WGEP,≤ 0.25
15,PCEA,≤ 0.25
16,IEGC,≤ 0.25
17,HPIF,≤ 0.25
18,ITPN,≤ 0.25
19,VEGC,≤ 0.25
20,SGLC,20.7
21,YISS,0.549
22,MTHD,≤ 0.25
23,IDLE,≤ 0.25
24,IQFY,≤ 0.25

row,Variant,enrichment ratio
1,PIGY,≤ 0.25
2,SGTI,16.7
3,KQIY,≤ 0.25
4,SGVD,≤ 0.25
5,DYKR,≤ 0.25
6,YINS,≤ 0.25
7,KPWR,≤ 0.25
8,TDCC,12.6
9,VAHH,1.34
10,VICS,≤ 0.25
11,GKRF,≤ 0.25
12,QDFL,≤ 0.25
13,HGKA,≤ 0.25
14,ICAW,≤ 0.25
15,LMIC,≤ 0.25
16,KYNK,≤ 0.25
17,HQPA,≤ 0.25
18,KQYD,≤ 0.25
19,VCYI,≤ 0.25
20,QLSI,0.721
21,HTMI,1.06
22,CNHC,≤ 0.25
23,GWQH,≤ 0.25
24,MMHE,≤ 0.25

row,Variant,enrichment ratio
1,IETR,≤ 0.25
2,PYDI,≤ 0.25
3,PTTM,≤ 0.25
4,PVIF,≤ 0.25
5,IRDS,≤ 0.25
6,RGPC,≤ 0.25
7,HFPT,≤ 0.25
8,VADV,≤ 0.25
9,SVYN,0.341
10,GEPG,≤ 0.25
11,VGKC,≤ 0.25
12,PSDF,0.39
13,DHGK,≤ 0.25
14,LEHF,≤ 0.25
15,TEWR,6.71
16,EDFH,≤ 0.25
17,FDLR,≤ 0.25
18,PKFQ,≤ 0.25
19,GGDS,≤ 0.25
20,WWSQ,≤ 0.25
21,LRNW,≤ 0.25
22,AIVD,≤ 0.25
23,NWGH,≤ 0.25
24,PPVL,≤ 0.25

row,Variant,enrichment ratio
1,FQNW,≤ 0.25
2,GQPH,≤ 0.25
3,ACCL,9.91
4,DSGA,≤ 0.25
5,SPRS,≤ 0.25
6,MQIR,≤ 0.25
7,EMVC,≤ 0.25
8,LQVM,≤ 0.25
9,WLMP,≤ 0.25
10,DCMQ,≤ 0.25
11,GCHG,≤ 0.25
12,PVIN,≤ 0.25
13,FGGQ,3.04
14,WCFP,≤ 0.25
15,KFCK,≤ 0.25
16,VFTC,≤ 0.25
17,ADSA,≤ 0.25
18,KMRG,≤ 0.25
19,HYGL,≤ 0.25
20,VVFM,≤ 0.25
21,TFKY,≤ 0.25
22,VDKL,≤ 0.25
23,REMD,≤ 0.25
24,HYYK,≤ 0.25

row,Variant,enrichment ratio
1,NTNP,≤ 0.25
2,YVPS,≤ 0.25
3,GVVS,≤ 0.25
4,PQQS,≤ 0.25
5,DAIP,≤ 0.25
6,AQDQ,≤ 0.25
7,HITR,≤ 0.25
8,YWAH,0.301
9,SWCG,≤ 0.25
10,NGAI,≤ 0.25
11,SQPG,≤ 0.25
12,YNGC,0.307
13,WDVQ,≤ 0.25
14,ASHS,≤ 0.25
15,STPI,10.9
16,FPDT,≤ 0.25
17,VQFT,≤ 0.25
18,ISQS,≤ 0.25
19,WVMG,≤ 0.25
20,AGHL,0.911
21,NKTG,≤ 0.25
22,SLNK,≤ 0.25
23,MELY,≤ 0.25
24,IMHG,≤ 0.25

row,Variant,enrichment ratio
1,YLQK,≤ 0.25
2,TQTH,6.85
3,QNTL,≤ 0.25
4,GNWP,≤ 0.25
5,FQNL,≤ 0.25
6,MAGC,5.37
7,SGAK,≤ 0.25
8,ESCT,≤ 0.25
9,VADK,≤ 0.25
10,TTDC,2.92
11,MPWL,≤ 0.25
12,WYTF,≤ 0.25
13,PAIP,≤ 0.25
14,KVRL,≤ 0.25
15,SVQF,6.23
16,PKLR,≤ 0.25
17,RAVR,≤ 0.25
18,YTAM,≤ 0.25
19,AEQD,≤ 0.25
20,SPDE,≤ 0.25
21,TWRA,≤ 0.25
22,LFTG,≤ 0.25
23,ADLM,12.7
24,GCCQ,8.03

row,Variant,enrichment ratio
1,PWVA,≤ 0.25
2,DSMH,≤ 0.25
3,HPDL,≤ 0.25
4,SSSG,8.68
5,QAIN,≤ 0.25
6,VVDR,1.03
7,DIAD,≤ 0.25
8,NMSI,≤ 0.25
9,GMQY,≤ 0.25
10,KLMD,≤ 0.25
11,AWID,≤ 0.25
12,IRTP,≤ 0.25
13,WHMW,≤ 0.25
14,PHSD,≤ 0.25
15,PCWW,≤ 0.25
16,AWWL,≤ 0.25
17,DWKG,≤ 0.25
18,LGES,≤ 0.25
19,LHIK,1.49
20,IFAL,≤ 0.25
21,MLSE,≤ 0.25
22,DHHH,≤ 0.25
23,PQPK,≤ 0.25
24,IWSH,≤ 0.25

row,Variant,enrichment ratio
1,EQTR,≤ 0.25
2,VQHC,≤ 0.25
3,PAAD,≤ 0.25
4,QHGI,≤ 0.25
5,DQCR,≤ 0.25
6,LCCC,≤ 0.25
7,MHTY,≤ 0.25
8,AMFQ,≤ 0.25
9,WDNC,≤ 0.25
10,EFAS,≤ 0.25
11,IIVP,≤ 0.25
12,SDPV,≤ 0.25
13,MRQL,≤ 0.25
14,RYNM,≤ 0.25
15,DIRT,≤ 0.25
16,GIAN,8.67
17,LISK,≤ 0.25
18,NRTK,≤ 0.25
19,VDFW,≤ 0.25
20,SHVY,9.82
21,RKIA,≤ 0.25
22,VAGW,≤ 0.25
23,LWGD,≤ 0.25
24,MWDG,≤ 0.25

row,Variant,enrichment ratio
1,NWSW,≤ 0.25
2,KPAM,≤ 0.25
3,DAAN,≤ 0.25
4,QVLF,≤ 0.25
5,YWPK,≤ 0.25
6,HKYG,≤ 0.25
7,KIGH,≤ 0.25
8,DQAD,≤ 0.25
9,LWFM,≤ 0.25
10,GPPH,≤ 0.25
11,YYPG,≤ 0.25
12,APSK,≤ 0.25
13,WIPW,≤ 0.25
14,NKPN,≤ 0.25
15,MVVV,≤ 0.25
16,ECGV,≤ 0.25
17,RNFW,≤ 0.25
18,FWWM,≤ 0.25
19,SFGL,≤ 0.25
20,WIMC,≤ 0.25
21,DVIW,≤ 0.25
22,QNSY,≤ 0.25
23,AHWR,≤ 0.25
24,PIDL,≤ 0.25

row,Variant,enrichment ratio
1,WVRD,≤ 0.25
2,HMNQ,≤ 0.25
3,GSAP,≤ 0.25
4,DMVL,≤ 0.25
5,DPCW,≤ 0.25
6,SRMG,≤ 0.25
7,DSSN,≤ 0.25
8,MFNK,≤ 0.25
9,HFYN,≤ 0.25
10,GWQW,≤ 0.25
11,PAID,≤ 0.25
12,DFIK,≤ 0.25
13,GMVF,3.94
14,TCCE,≤ 0.25
15,ALGE,≤ 0.25
16,RCEC,≤ 0.25
17,HGGL,≤ 0.25
18,ETLR,≤ 0.25
19,PAML,≤ 0.25
20,IECM,≤ 0.25
21,YMLP,≤ 0.25
22,PAYR,≤ 0.25
23,SDTM,≤ 0.25
24,TYVF,≤ 0.25

row,Variant,enrichment ratio
1,NACL,4.16
2,VTES,≤ 0.25
3,PFEV,≤ 0.25
4,NPIL,≤ 0.25
5,EFAC,≤ 0.25
6,PCRL,≤ 0.25
7,TFHG,≤ 0.25
8,WKDW,≤ 0.25
9,HRSY,≤ 0.25
10,DHIA,≤ 0.25
11,LMIF,≤ 0.25
12,KGSF,≤ 0.25
13,TFTC,4.88
14,KGNS,≤ 0.25
15,SLDH,≤ 0.25
16,VGCR,≤ 0.25
17,NRFV,≤ 0.25
18,HVAR,≤ 0.25
